The record followed here is ChEMBL document CHEMBL4888484, “Replenishing the malaria drug discovery pipeline: Screening and hit evaluation of the MMV Hit Generation Library 1 (HGL1) against asexual blood stage Plasmodium falciparum ,using a nano luciferase reporter read-out” (2022).

In all, about 150,000 compounds went through this assay and about 540 (0.36%) showed an effect of 50% or more. Some of the results follow.

The assay relates to Plasmodium falciparum. In words: Primary screen in NF54 nanoGlo assay, in single point, at 2uM, 72h; a lower Z score goes with more inhibition. Type of assay: functional, Erythrocyte. The conditions noted are these: timepoint 72 hour.
Broadly, the % Inhibition is the change of the read-out against control, counted positive when it falls. As for `CN(C(=O)C[C@H]1CCCS(=O)(=O)C1)C1CCC(F)(F)CC1`, the “% Inhibition” value is -4% and the Z score came out at 0.67.

For `N#CC1(NC(=O)Cn2cnc3ccc(Cl)cc3c2=O)CCCC1`, the “% Inhibition” value was -13% and the Z score turned out to be 1.81.

With `Cc1nc(CNC(=O)Nc2ccc(Br)c(C)n2)no1`, the “% Inhibition” value is reported as 35% and the Z score is given as -1.45.

Take `CN1CCN(S(=O)(=O)c2ccc(F)c(F)c2)C[C@H]1c1ccccc1`: the “% Inhibition” value came to 36% and the Z score was -4.11.

Regarding `NC(=O)c1cc([C@H]2CCCN(CC(=O)NCc3cccs3)C2)n[nH]1`, the “% Inhibition” value came to 1% and the Z score is listed as -0.11.

For the molecule `O=C1CCC2(CCN1)CCN(CCCc1ccco1)CC2`, the “% Inhibition” value turned out to be 5% and the Z score is on record as -0.85.

As for `COCCN1C[C@@H](CNC(=O)c2ccc(C)nc2C)CC1=O`, the “% Inhibition” value was -13% and the Z score was 2.44.

As to `CCO[C@@H](C)c1nc(Cn2cnc3cc(C)c(C)cc32)cs1`, the “% Inhibition” value was -9% and the Z score came to 1.03.

For the molecule `Cc1cc(N(C)C(=O)CN(C)S(C)(=O)=O)ccc1Br`, the “% Inhibition” value is listed as -4% and the Z score came to 0.45.

In the case of `Cc1cc(OCC(=O)Nc2ccc(S(=O)(=O)N3C[C@H](C)Oc4ccccc43)cc2)cc(C)c1Cl`, the “% Inhibition” value is recorded as -11% and the Z score turned out to be 1.42.

As for `CNc1ncccc1C(=O)NC(Cc1ccccn1)[C@H]1C[C@H](O)C1` (stereo partly drawn), the “% Inhibition” value is given as -2% and the Z score came to 0.4.

In the case of `N#Cc1nccnc1O[C@H]1CC[C@H](NC(=O)c2ccc3ncsc3c2)CC1`, the “% Inhibition” value is recorded as -12% and the Z score worked out at 1.34.

Regarding `Cc1cccc2c1nc(COCC(=O)O)n2-c1ccncc1`, the “% Inhibition” value is reported as -2% and the Z score is on record as 0.33.

Consider `CC(C)CNC(=O)N1CCC[C@H]1c1cccs1`, for which the “% Inhibition” value is reported as -1% and the Z score is listed as 0.15.

Take `O=C(c1ccc(OC(F)(F)F)cc1)N1CCCn2nc(-c3ccncc3)cc2C1`: the “% Inhibition” value was -32% and the Z score came out at 2.78.

Consider `Cc1nc(N2CCCC2)nc(-c2cccc(C(=O)N[C@H]3CCOC3)c2)c1C`, for which the “% Inhibition” value is given as 7% and the Z score is -1.24.

Take `NC(=O)c1c(NC(=O)c2ccncc2)sc2c1CCC2`: the “% Inhibition” value was -8% and the Z score stood at 1.42.

With `CCOc1cccc([C@@H]2CC(c3ccccc3)=NC3(CCN(C(C)C)CC3)N2)c1O`, the “% Inhibition” value was -18% and the Z score was 2.03.

Take `C#CCCC1(CCC(=O)NCc2cc(OC)no2)N=N1`: the “% Inhibition” value was found to be 10% and the Z score is recorded as -1.19.

Consider `N#CCCc1c(Cl)cccc1Cl`, for which the “% Inhibition” value is listed as -3% and the Z score is 0.59.

Regarding `Cc1oc(-c2ccsc2)nc1CN1CC[C@H](c2ccncc2)C1`, the “% Inhibition” value is -20% and the Z score was 1.83.

For `CCc1cc(C(=O)Nc2ccc(-n3cncn3)nc2)sc1C`, the “% Inhibition” value is on record as -23% and the Z score is recorded as 2.52.

Turning to `Cc1nnc(C(=O)NCc2nc(C)c(C)s2)s1`, the “% Inhibition” value was -7% and the Z score is given as 1.2.

For `COCCC(=O)N[C@H]1CC[C@]2(C)CCC([C@H](C)C(=O)NCc3ccc(F)cc3)[C@H](O)[C@H]2[C@@H]1C` (stereo partly drawn), the “% Inhibition” value was found to be 5% and the Z score was -0.58.

On to `CN1CCN([C@H]2CN(c3ncccc3F)C[C@@H]2O)CC1`, for which the “% Inhibition” value is given as -12% and the Z score turned out to be 1.67.

`CCN1CCN(C[C@]2(O)CCCN(CCC3CCCCC3)C2=O)CC1`: the “% Inhibition” value is on record as -15% and the Z score is 3.07.

For `C=CCc1ccccc1OCCCON1C(=O)CCC1=O`, the “% Inhibition” value amounted to 28% and the Z score is -3.79.

With `CCOc1ccccc1C(=O)N1C[C@H]2CN(C(=O)c3ccccc3)C[C@@]2(CO)C1`, the “% Inhibition” value is -13% and the Z score turned out to be 1.72.

Take `CCCCN1C(=O)[C@H]2[C@H]([C@H](O)c3ccc(Cl)cc3)N[C@@]3(C(=O)Nc4ccccc43)[C@H]2C1=O`: the “% Inhibition” value was found to be 43% and the Z score is recorded as -6.76.

Turning to `CN(C)c1nnc(CNS(=O)(=O)C[C@@]2(C)CC2(F)F)[nH]1`, the “% Inhibition” value was -11% and the Z score came out at 2.09.

Consider `COc1cc(-c2ccc(C(=O)NCCNS(C)(=O)=O)cc2)nc(N)n1`, for which the “% Inhibition” value stood at 6% and the Z score was -1.05.

As for `CCCc1nnsc1C(=O)N[C@@H]1COCC[C@@H]1Oc1ccc(C)nc1`, the “% Inhibition” value is reported as -6% and the Z score is reported as 0.66.

Turning to `C=CC[C@H](CC)NC(=O)Nc1c(CC)noc1C`, the “% Inhibition” value is -5% and the Z score is on record as 0.52.

For `O=S(=O)(NCc1ccc2sccc2c1)N1CCCC1`, the “% Inhibition” value was -17% and the Z score is 2.56.

For `O[C@H]1Cc2ccccc2C12CCN(Cc1ccc(-c3cc[nH]n3)o1)CC2`, the “% Inhibition” value is listed as -3% and the Z score is given as 0.53.

In the case of `Cc1ccc2nc(N3CCC[C@H](O)C3)c(CN3CC(O)C3)cc2c1`, the “% Inhibition” value is listed as -11% and the Z score turned out to be 1.93.

Take `Cc1ccc(N(C(=O)c2cnc3ccccc3n2)C2CCCCC2)nc1`: the “% Inhibition” value is on record as -7% and the Z score is 1.06.

With `Cc1[nH]nc(CCc2ncnn2CCc2ccccc2)c1C`, the “% Inhibition” value was -10% and the Z score amounted to 1.36.

Consider `NC(=O)c1nccnc1C(=O)NC1CCCC1c1ccc(Cl)cc1` (stereo not drawn), for which the “% Inhibition” value is -14% and the Z score stood at 2.2.

For the molecule `COc1cccc(Cn2c(C)c(C3=CCN(S(=O)(=O)c4c(C)noc4C)CC3)c3ccccc32)c1`, the “% Inhibition” value is listed as -5% and the Z score stood at 0.62.

With `Cc1cc(Oc2ncccn2)ccc1NC(=O)c1n[nH]c2ccccc12`, the “% Inhibition” value amounted to 4% and the Z score is on record as -0.6.

Turning to `Nc1cncc(-c2cnc3[nH]ccc3c2)c1`, the “% Inhibition” value was -6% and the Z score was 0.8.

On to `O=C1C[C@H](c2nc(C3CCC3)no2)CN1c1cccc(O)c1`, for which the “% Inhibition” value is recorded as -17% and the Z score was 3.32.

In the case of `O=C(Nc1cccc(-c2noc(-c3cccnc3)n2)c1)c1cccs1`, the “% Inhibition” value was -24% and the Z score was 2.15.

`Nc1ncc(-c2cc(F)ccc2OC[C@H]2CCOC2)cn1`: the “% Inhibition” value came to 0% and the Z score was -0.02.

Take `Oc1ccc2c(c1)Oc1ncn3nc(-c4ccccc4)nc3c1[C@H]2c1ccccc1`: the “% Inhibition” value is recorded as 27% and the Z score is -3.06.

Regarding `O=C(CC1CCCC1)NCC1CCOCC1`, the “% Inhibition” value is listed as -4% and the Z score is recorded as 0.72.

In the case of `O=C(Nc1cccc2ccccc12)c1nn2c(C(F)(F)F)cc(-c3ccccc3)nc2c1Br`, the “% Inhibition” value was -15% and the Z score was 2.43.

As for `O=C(Nc1ccc2c(c1)OCO2)c1ccc(COc2ccc3c(c2)CCC3)o1`, the “% Inhibition” value is 5% and the Z score is given as -0.61.

With `CCOC1CC(NC(=O)NCC2(CO)CC2)C12CCCC2` (stereo not drawn), the “% Inhibition” value is on record as -3% and the Z score is on record as 0.43.

As to `CC(=O)N1CCN(C(=O)Nc2cccc3c2CCCC3)CC1`, the “% Inhibition” value is on record as -7% and the Z score is 0.97.

For `Cc1ccc(Nc2nc(N)nc(COC(=O)c3ccc(N4CCOCC4)nc3)n2)cc1`, the “% Inhibition” value is recorded as -15% and the Z score amounted to 1.93.

As to `CCn1nccc1C(=O)Nc1nc2cc3c(cc2s1)OCCO3`, the “% Inhibition” value is given as -5% and the Z score is 0.94.

With `COc1cc(CNn2nnnc2N)cc(Br)c1OCc1ccc(F)cc1`, the “% Inhibition” value is -13% and the Z score was 1.47.
